Some of the results follow. Cut-off read from the data, not from the text of the source: active = 3.2 or more and inactive = the rest. The signal is at background level for most entries.
B1: PTPN11_Y279_I282V (peptide)
chain: KNKNRYKNVLP
B2: PTPN11_Y511_Q510P (peptide)
chain: QTEAPYRFIYM
B3: PTPN11_Y62_G60A_YF (peptide)
chain: QNTADYFDLFG
B4: PTPN11_Y63_Y62D_YF (peptide)
chain: NTGDDYDLFGG
B5: PTPN11_Y511_Q510P_YF (peptide)
chain: QTEAPYRFIFM
B6: PTPN11_Y66_Y62D_YF (peptide)
chain: DDFDLYGGEKF
B7: PTPN11_Y66_E69K_YF (peptide)
chain: DFFDLYGGKKF
B8: PTPN11_Y62_D61V (peptide)
chain: QNTGVYYDLYG
B9: PTPN11_Y63_N58K_YF (peptide)
chain: KTGDFYDLFGG
B10: PTPN11_Y66_E69K (peptide)
chain: DYYDLYGGKKF
B11: PTPN11_Y62_G60A (peptide)
chain: QNTADYYDLYG
B12: PTPN11_Y62_YF (peptide)
chain: QNTGDYFDLFG
B13: PTPN11_Y63_Y63C_YF (peptide)
chain: NTGDFCDLFGG
B14: PTPN11_Y62_T59A_YF (peptide)
chain: QNAGDYFDLFG
B15: PTPN11_Y66_F71L (peptide)
chain: DYYDLYGGEKL
B16: PTPN11_Y511_Q506P (peptide)
chain: PTEAQYRFIYM
B17: PTPN11_Y511_YF (peptide)
chain: QTEAQYRFIFM
B18: PTPN11_Y66_F71L_YF (peptide)
chain: DFFDLYGGEKL
B19: PTPN11_Y66_E69Q (peptide)
chain: DYYDLYGGQKF

target: SHP2 C-SH2 domain E139D; test: enrichment score (SH2-bound / input frequency) (ratio); bacterial display of known human phosphotyrosine sites (pTyr-Var adds point mutants) read by sequencing; higher = stronger binding; tyrosines were phosphorylated by kinases first; details: peptide library: pTyr-Var
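Note: displayed peptides selected on beads carrying the immobilized SH2 domain, with library peptides lacking any tyrosine serving as negative controls.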

Enrichment score, inactive:
B1 0.708
B2 0.651
B3 1.03
B4 0.673
B5 0.473
B6 0.773
B7 1.11
B8 1.34
B9 1.19
B10 0.836
B11 1.03
B12 1.05
B13 0.959
B14 0.653
B15 1.01
B16 0.459
B17 0.557
B18 1.04
B19 0.956

target: SHP2 C-SH2 domain wild-type; test: as above; details: peptide library: pTyr-Var

Enrichment score, inactive:
B1 0.446
B2 0.604
B3 0.934
B4 0.807
B5 0.621
B6 0.757
B7 0.91
B8 0.968
B9 0.791
B10 0.789
B11 0.895
B12 1.03
B13 1.23
B14 0.688
B15 1.03
B16 0.584
B17 0.848
B18 1.04
B19 0.664

target: SHP2 N-SH2 domain L43F; test: as above; details: peptide library: pTyr-Var

Enrichment score, inactive:
B1 0.502
B2 0.607
B3 1.23
B4 0.697
B5 0.55
B6 1.07
B7 0.93
B8 0.988
B9 0.981
B10 0.75
B11 0.696
B12 0.998
B13 1.05
B14 1.21
B15 0.848
B16 0.569
B17 0.618
B18 1.03
B19 0.826

target: SHP2 N-SH2 domain T42A; test: as above; details: peptide library: pTyr-Var

Enrichment score, inactive:
B1 0.414
B2 0.429
B3 0.873
B4 0.685
B5 0.622
B6 0.612
B7 0.949
B8 1.04
B9 0.922
B10 0.858
B11 0.707
B12 0.872
B13 0.863
B14 1.28
B15 0.931
B16 0.408
B17 0.547
B18 0.798
B19 0.829

target: SHP2 N-SH2 domain T52S; test: as above; details: peptide library: pTyr-Var

Enrichment score, inactive:
B1 0.56
B2 0.592
B3 1.1
B4 0.958
B5 0.856
B6 0.522
B7 1.06
B8 1.07
B9 1.14
B10 0.856
B11 0.785
B12 0.9
B13 1.15
B14 0.695
B15 1.04
B16 0.515
B17 0.569
B18 0.947
B19 0.924

target: SHP2 N-SH2 domain wild-type; test: as above; details: peptide library: pTyr-Var

Enrichment score, inactive:
B1 0.509
B2 0.577
B3 1.24
B4 0.743
B5 0.69
B6 0.787
B7 1.51
B8 0.972
B9 1.11
B10 0.915
B11 0.809
B12 1.09
B13 1.2
B14 1.05
B15 1.01
B16 0.973
B17 0.625
B18 0.839
B19 1.13
